For the test, the target named is T1, RahU (TEV-cleaved, structural studies) (Pseudomonas aeruginosa, UniProt Q9I710).
T1 construct: gene PA0122
Conditions: crystals with 0.1 M Tris/HCl pH 8.5, cryoprotectant 0.12 M Tris; cavity between B-loop and C-loop.

In the case of `NC(CO)(CO)CO` [Tris], the “X-ray crystal structure, 1.13 Å” value was 6ZC1 for apo-RahU and 6ZC2 for RahU-Tris complex.

The values are drawn from publication PMC7985367, “Crystal structure of RahU, an aegerolysin protein from the human pathogen Pseudomonas aeruginosa, and its interaction with membrane ceramide phosphorylethanolamine” (Scientific Reports, 2021).
